The supplement of paper PMC3334620
The full ranking holds about 33,000 sequences; the median of “E-score (-0.5 to 0.5)” is about -0.053, and the highest 2% start at about 0.37. The list shows a part of the results.

What follows are sequences tested against Hap1 (UniProt P0CE41) (assay: PBM E-score (8-mer binding enrichment) (E-score (-0.5 to 0.5)); higher = stronger / more preferred TF binding; most listed sequences are background and not binding sites). Conditions: protein concentration: 200 nM; construct: GST-DNA-binding domain.
Chain of UniProt P0CE41 (P0CE41 whole entry, the tested form may be a part): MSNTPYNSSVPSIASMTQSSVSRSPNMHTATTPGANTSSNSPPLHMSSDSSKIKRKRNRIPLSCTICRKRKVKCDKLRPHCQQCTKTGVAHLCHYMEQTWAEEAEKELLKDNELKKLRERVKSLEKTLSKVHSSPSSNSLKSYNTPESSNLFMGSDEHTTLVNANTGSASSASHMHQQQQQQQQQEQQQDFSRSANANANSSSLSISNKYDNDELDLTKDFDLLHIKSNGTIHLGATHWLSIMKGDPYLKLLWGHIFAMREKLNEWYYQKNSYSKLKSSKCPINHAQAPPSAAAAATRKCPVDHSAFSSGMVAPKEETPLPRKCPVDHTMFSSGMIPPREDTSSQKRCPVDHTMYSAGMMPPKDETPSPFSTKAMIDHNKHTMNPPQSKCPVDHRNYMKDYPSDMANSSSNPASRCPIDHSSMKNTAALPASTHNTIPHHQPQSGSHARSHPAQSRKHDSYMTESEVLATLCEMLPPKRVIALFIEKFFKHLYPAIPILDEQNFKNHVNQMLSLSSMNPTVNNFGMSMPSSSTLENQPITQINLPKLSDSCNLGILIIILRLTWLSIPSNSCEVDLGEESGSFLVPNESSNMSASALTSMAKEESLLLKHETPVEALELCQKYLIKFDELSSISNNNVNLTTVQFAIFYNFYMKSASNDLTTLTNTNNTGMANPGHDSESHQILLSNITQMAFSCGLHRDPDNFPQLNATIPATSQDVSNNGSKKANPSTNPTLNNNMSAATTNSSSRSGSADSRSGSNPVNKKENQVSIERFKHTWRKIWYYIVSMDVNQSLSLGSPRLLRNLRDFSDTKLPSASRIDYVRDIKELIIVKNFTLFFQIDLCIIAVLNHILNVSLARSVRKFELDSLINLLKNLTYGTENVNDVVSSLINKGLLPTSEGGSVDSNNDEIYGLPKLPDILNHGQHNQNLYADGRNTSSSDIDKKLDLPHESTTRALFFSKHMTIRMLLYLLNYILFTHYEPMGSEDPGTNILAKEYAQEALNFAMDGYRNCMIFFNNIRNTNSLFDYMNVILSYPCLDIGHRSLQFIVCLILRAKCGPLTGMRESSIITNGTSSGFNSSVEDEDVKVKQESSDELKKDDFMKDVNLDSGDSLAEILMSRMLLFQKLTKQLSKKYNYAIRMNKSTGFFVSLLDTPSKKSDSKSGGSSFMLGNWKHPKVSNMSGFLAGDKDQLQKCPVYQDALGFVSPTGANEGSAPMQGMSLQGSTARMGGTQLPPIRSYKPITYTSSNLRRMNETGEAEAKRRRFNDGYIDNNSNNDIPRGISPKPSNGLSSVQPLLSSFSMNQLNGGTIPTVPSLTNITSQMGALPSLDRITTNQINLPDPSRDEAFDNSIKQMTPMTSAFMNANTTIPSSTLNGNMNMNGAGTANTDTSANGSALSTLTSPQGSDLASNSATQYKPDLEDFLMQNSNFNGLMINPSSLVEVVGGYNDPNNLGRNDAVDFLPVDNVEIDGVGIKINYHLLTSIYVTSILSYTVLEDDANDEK
In short: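 Using PURExpress in vitro transcription/translation, GST-tagged yeast transcription factors were made in full-length or DNA-binding-domain form. These were applied at about 100-200 nM to double-stranded universal all-10-mer Agilent arrays, and bound protein was detected with fluorescent anti-GST. Scans were normalised with masliner before the Universal PBM Analysis Suite assigned E-scores to ungapped eight-base words pooled with their reverse complements.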

| Sequence | PBM E-score |
| --- | --- |
| CGTGTATA | 0.0146 |
| ATAGCGCA | -0.1 |
| AGGCGTCC | 0.00712 |
| GGCGGAAC | 0.257 |
| CATCCAGC | -0.131 |
| CCATGGCC | -0.0324 |
| AACAAAAG | -0.235 |
| GAGCTAGA | -0.135 |
| GACTCTTA | -0.0624 |
| CCCTGAAC | -0.0914 |
| CTCTGAGA | -0.351 |
| AACATCAT | -0.26 |
| AAGGCCAA | -0.0718 |
| AAGCCCAT | -0.143 |
| CCTATTGA | -0.189 |
| AGACCTAT | -0.0653 |
| CGGGTCAG | 0.291 |
| CGCGAAAG | 0.00498 |
| CTTACTAA | -0.086 |
| GATGAGAC | -0.0286 |
| CTGCCTTC | -0.204 |
| GCTCACCC | 0.0163 |
| ATTGCCCA | -0.202 |
| CTGAGAAG | -0.194 |
| GACGGAGA | 0.318 |

| Sequence | PBM E-score |
| --- | --- |
| ACTAACCC | 0.00848 |
| AGTCATCG | -0.0494 |
| TCGTGTAA | 0.0474 |
| AAATTAAT | -0.00464 |
| TGACGCCA | -0.272 |
| CGCCTATA | 0.184 |
| GAGCCGAC | 0.179 |
| GCCTTAGA | -0.04 |
| CCTACACC | -0.037 |
| CATATGGA | -0.127 |
| ATTCATAG | -0.204 |
| GCTTGTAC | 0.0904 |
| CAATTGGC | -0.159 |
| CCGGAGCA | 0.418 |
| ACCGAACA | 0.265 |
| TGTACAAA | -0.129 |
| AGCTCTGC | -0.231 |
| AGCTTGCG | -0.169 |
| AATGTAGA | -0.101 |
| AGAGTTAG | -0.0639 |
| CTGTATAA | -0.232 |
| GACATAGA | -0.135 |
| CTCAAAAG | -0.0673 |
| CGTATGCC | -0.0351 |
| TACCGCCA | 0.0951 |

| Sequence | PBM E-score |
| --- | --- |
| GCGCCAGA | 0.0486 |
| TCCATTAA | 0.0772 |
| AAAGTGCG | 0.128 |
| GTATCCAC | -0.0484 |
| TTAGCAAA | 0.0428 |
| ATTGGCAG | -0.0447 |
| CAGCAAAG | -0.158 |
| TATCTTGA | 0.00716 |
| ACGCTGCC | -0.00621 |
| AAACAATA | 0.172 |
| GTCTCGAA | -0.271 |
| AGTCTCTC | -0.0978 |
| GAAACCAC | -0.0824 |
| ACGTGCAA | -0.0353 |
| GTTACGAA | -0.0267 |
| CAGCCCGC | 0.04 |
| GACTAGAC | -0.274 |
| CAAACACG | 0.0351 |
| TGCGCTAA | -0.0418 |
| GCCGTTCC | 0.0668 |
| ACCTCCCG | 0.136 |
| TATCTGCA | -0.16 |
| AATCCGGT | 0.418 |
| CGATGGCG | 0.135 |
| CAGGGGAC | -0.0585 |

| Sequence | PBM E-score |
| --- | --- |
| TACAAGGA | -0.0632 |
| GGCTCCTA | -0.0347 |
| AAATTCTT | -0.0993 |
| CTTCACCC | 0.0942 |
| GCTAATCC | 0.17 |
| CACTGGGC | 0.00656 |
| CTGTGGAA | -0.0726 |
| CAAGATCG | 0.0451 |
| CTGTAAGC | -0.0848 |
| GGTGCATA | 0.0387 |
| TTGAGAAA | -0.245 |
| GCGGACCA | 0.31 |
| ATGTAATA | -0.0285 |
| CTTGAACA | -0.0064 |
| CAAGAGCC | -0.0186 |
| AACGTCGC | -0.0144 |
| AAGCCGGA | 0.413 |
| ACTCCACT | -0.222 |
| CTGCCAGA | -0.0778 |
| ACAGCTTG | -0.179 |
| CTTTCACC | 0.012 |
| TAATGCGA | -0.0751 |
| ATATACCG | 0.33 |
| CGCAGCTA | 0.166 |
| AGTACACC | -0.0977 |

| Sequence | PBM E-score |
| --- | --- |
| AAATATTT | -0.148 |
| CTGCTGGC | -0.144 |
| ACCGTCCG | 0.381 |
| AATTTTCA | -0.138 |
| GACACTCA | -0.0724 |
| CCACTCTA | -0.231 |
| CCGGTGCG | 0.342 |
| CAGTGGTC | -0.135 |
| GGTCCTGA | 0.012 |
| GGTAACAC | -0.0637 |
| CCTGGTAG | -0.177 |
| CCTTATAC | -0.0633 |
| CAGTCACG | -0.182 |
| CACACGCA | -0.123 |
| CACACCGG | 0.288 |
| CCTAAGCC | 0.00861 |
| CCCGAACC | 0.2 |
| CAAACCAG | -0.174 |
| AAGATGTG | -0.249 |
| ACGCCCAC | -0.0707 |
| GGACTACC | 0.138 |
| GGTTGTGA | 0.0269 |
| GGCGTCTA | -0.00561 |
| TTAGACAA | -0.0633 |
| GCGCTGAA | -0.108 |

| Sequence | PBM E-score |
| --- | --- |
| ATGACCTG | -0.0341 |
| AAGAAAAA | -0.158 |
| ACGCACCG | 0.00605 |
| CGTTGCGA | -0.0877 |
| TCCAAAGA | -0.0808 |
| CTACTGAG | -0.127 |
| CCTCAATA | -0.16 |
| ATTACTGA | -0.354 |
| GAGTACCA | -0.00397 |
| AAACACCT | -0.0632 |
| TATCGTGA | -0.136 |
| AGGTGTAC | -0.262 |
| AGTTCCAT | -0.0302 |
| CTGATCGC | -0.189 |
| AATGAGTG | -0.0224 |
| ATGCGGTC | 0.149 |
| AAGAATCC | 0.16 |
| CCCGCCCC | 0.243 |
| ATCACTAA | 0.0244 |
| CCATGCGA | -0.0116 |
| AAGGATGC | -0.36 |
| CCTGCTAG | -0.234 |
| ACATCTCG | 0.106 |
| AGGCATTC | -0.135 |
| GCTGACTA | -0.0345 |

| Sequence | PBM E-score |
| --- | --- |
| GACGCAAA | -0.0213 |
| TAGCTTAA | -0.135 |
| ACTATGCA | -0.16 |
| TAATATAA | 0.145 |
| GAAGCGCC | 0.171 |
| AGCGCGCA | 0.152 |
| AATCCCTC | -0.0615 |
| CGAGCTTC | 0.0852 |
| CCATACTC | -0.00759 |
| AAGTTGAA | -0.187 |
| CATTTGCA | -0.167 |
| ATGTCTCG | 0.0854 |
| AGAACCTA | -0.163 |
| AGTTCAAG | 0.0135 |
| GCCTATGA | -0.18 |
| ACCATCTA | -0.0917 |
| GTCACGCA | -0.131 |
| ACCACCGG | 0.344 |
| ACTCACTC | -0.00058 |
| CAGCAAGC | -0.258 |
| CACCACTC | 0.0624 |
| AGCGGCAA | 0.0491 |
